Source: PubChem BioAssay (Tox21)
Values joined by “and” are separate entries in the source; they are usually repeats but may differ in a detail not shown here. Equal values may be shown once. Inconclusive results, whose numbers are uncertain, are shown with a selection of clear calls. For some of these results: Potencies beside an inconclusive call are fits to weak or partial responses and may not hold up. Some compounds were tested as several samples or in several runs, with calls that do not always agree. Active and inactive are the calls of the source. The call rests on the fitted dose curve; in most records, active means well fitted curve in the direction sought with a large enough effect in the repeat runs; inconclusive means weak or mixed curves; inactive means no such curve, though single readings can be large; an effect the other way counts as inactive or inconclusive.

Key:
[1] = qHTS RealTime-Glo MT Cell Viability Assay in HEK293 cells - 0 hour (AID 1224880); further: nearly all actives have a fitted effect of over 45% in size
Summary of the method: (§1)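 Cells were seeded together with NanoLuc luciferase and a prosubstrate that viable cells reduce to a luciferase substrate. After a 5 h incubation at 37 C/5% CO2, compounds were added and luminescence was measured repeatedly during 40 h of treatment.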

[2] = A CellTox Green Cytotoxicity Assay to monitor cytotoxicity in HEK293 cells - 32 hour (AID 1224881); further: nearly all actives have a fitted effect of over 40% in size
Summary of the method: (§2)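 Nonlytic real-time cytotoxicity: HEK293 + CellTox Green reagent plated, 5 h preincubation, pintool compound addition (23 nL in DMSO), 37 C for 40 h, fluorescence measured at successive time points.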

[3] = qHTS RealTime-Glo MT Cell Viability Assay in HEK293 cells - 24 hour (AID 1224886); further: nearly all actives have a fitted effect of over 50% in size
Summary of the method: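 Nonlytic real-time viability readout: viable cells convert prosubstrate to NanoLuc substrate, giving luminescence proportional to live cell number. HEK293, 600 cells/well, compound added after 5 h, continuous culture at 37 C.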

[4] = qHTS RealTime-Glo MT Cell Viability Assay in HEK293 cells - 8 hour (AID 1224887); further: nearly all actives have a fitted effect of over 50% in size
Summary of the method: as §1

[5] = qHTS RealTime-Glo MT Cell Viability Assay in HepG2 cells - 0 hour (AID 1224889); further: nearly all actives have a fitted effect of over 50% in size
Summary of the method: (§3)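 Luminescence read-out: viable HepG2 cells reduce a prosubstrate to a NanoLuc substrate, giving a signal proportional to live cell number. Reads taken at 0, 8, 16, 24, 32 and 40 h of compound exposure at 37 C.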

[6] = A CellTox Green Cytotoxicity Assay to monitor cytotoxicity in HepG2 cells - 8 hour (AID 1224890); further: nearly all actives have a fitted effect of over 45% in size
Summary of the method: (§4)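 Read-out is fluorescence of a cyanine dye excluded from live cells that stains DNA of dead HepG2 cells, with signal proportional to cytotoxicity. Plates were read at 0, 8, 16, 24, 32 and 40 h after compound addition.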

[7] = qHTS assay to identify small molecule antagonists of the androgen receptor (AR) signaling pathway using the MDA cell line in the presence of 0.5 nM R1881 - cell viability counter screen (AID 1259242); further: nearly all actives have a fitted effect of over 45% in size
Summary of the method: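 Counter screen for cytotoxicity run in the same wells as the AR antagonist reporter screen: MDA-kb2 cells were treated 16 hr with test compounds and 0.5 nM R1881, then live-cell protease activity was measured by fluorescence.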

[8] = molecular target: Androgen receptor (Homo sapiens) (UniProt P10275); experiment: qHTS assay to identify small molecule antagonists of the androgen receptor (AR) signaling pathway using the MDA cell line in the presence of 0.5 nM R1881 (AID 1259243); further: nearly all actives have a fitted effect of over 50% in size
Summary of the method: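 Luciferase luminescence is the read-out: compounds are tested for suppressing 0.5 nM R1881-driven MMTV reporter activity in MDA-kb2 cells after 16 hr at 37C.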

[9] = A CellTox Green Cytotoxicity Assay to monitor cytotoxicity in HepG2 cells - 40 hour (AID 1224879); further: nearly all actives have a fitted effect of over 40% in size
Summary of the method: as §4

[10] = qHTS assay to identify small molecule antagonists of the estrogen receptor alpha (ER-alpha) signaling pathway using the BG1 cell line in the presence of 0.1 nM 17-beta-estradiol - cell viability counter screen (AID 1259241); further: nearly all actives have a fitted effect of over 40% in size
Summary of the method: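 CellTiter-Fluor read (30 min, 37C) on ER-alpha/ERE-luc VM7Luc4E2 cells; 22 hr compound treatment; agonist 0.1 nM E2 final; same-well multiplex.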

[11] = A CellTox Green Cytotoxicity Assay to monitor cytotoxicity in HepG2 cells - 32 hour (AID 1224883); further: nearly all actives have a fitted effect of over 50% in size
Summary of the method: as §4

[12] = A CellTox Green Cytotoxicity Assay to monitor cytotoxicity in HEK293 cells - 8 hour (AID 1224884); further: nearly all actives have a fitted effect of over 35% in size
Summary of the method: as §2

[13] = molecular target: Estrogen receptor (Homo sapiens) (UniProt P03372); experiment: qHTS assay to identify small molecule antagonists of the estrogen receptor alpha (ER-alpha) signaling pathway using the BG1 cell line in the presence of 0.1 nM 17-beta-estradiol (AID 1259244); further: nearly all actives have a fitted effect of over 50% in size
Summary of the method: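 Cells: VM7Luc4E2, endogenous ER-alpha, 4x ERE-luc stable. Pre-culture 5 d, phenol red-free, charcoal-stripped FBS. Plated 24 h, compound + E2 0.1 nM final, 22 h 37C/5% CO2. Readout ONE-Glo luminescence.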

[14] = qHTS RealTime-Glo MT Cell Viability Assay in HepG2 cells - 16 hour (AID 1224885); further: nearly all actives have a fitted effect of over 50% in size
Summary of the method: as §3

[15] = A CellTox Green Cytotoxicity Assay to monitor cytotoxicity in HEK293 cells - 16 hour (AID 1224888); further: nearly all actives have a fitted effect of over 35% in size
Summary of the method: as §2
Potency means the concentration at half of the fitted maximal effect; tags describe the fitted curve by direction and shape.

Chain of UniProt P03372 (P03372 whole entry, looked up): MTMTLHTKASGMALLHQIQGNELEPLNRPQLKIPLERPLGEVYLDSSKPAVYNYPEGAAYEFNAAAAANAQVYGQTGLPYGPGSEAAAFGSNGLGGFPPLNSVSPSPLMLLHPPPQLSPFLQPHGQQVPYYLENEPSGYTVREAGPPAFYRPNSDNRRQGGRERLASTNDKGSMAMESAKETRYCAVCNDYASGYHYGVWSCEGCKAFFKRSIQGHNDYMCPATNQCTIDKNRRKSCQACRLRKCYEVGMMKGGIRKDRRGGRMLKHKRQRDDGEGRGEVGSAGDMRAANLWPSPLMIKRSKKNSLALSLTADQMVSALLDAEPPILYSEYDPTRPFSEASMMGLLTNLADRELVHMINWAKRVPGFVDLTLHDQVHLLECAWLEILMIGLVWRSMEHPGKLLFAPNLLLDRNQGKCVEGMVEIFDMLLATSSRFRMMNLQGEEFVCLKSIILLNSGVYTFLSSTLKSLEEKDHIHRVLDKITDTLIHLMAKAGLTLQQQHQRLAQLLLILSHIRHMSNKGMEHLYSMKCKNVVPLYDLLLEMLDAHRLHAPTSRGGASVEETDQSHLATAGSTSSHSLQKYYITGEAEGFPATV
Chain of UniProt P10275 (P10275 whole entry, looked up): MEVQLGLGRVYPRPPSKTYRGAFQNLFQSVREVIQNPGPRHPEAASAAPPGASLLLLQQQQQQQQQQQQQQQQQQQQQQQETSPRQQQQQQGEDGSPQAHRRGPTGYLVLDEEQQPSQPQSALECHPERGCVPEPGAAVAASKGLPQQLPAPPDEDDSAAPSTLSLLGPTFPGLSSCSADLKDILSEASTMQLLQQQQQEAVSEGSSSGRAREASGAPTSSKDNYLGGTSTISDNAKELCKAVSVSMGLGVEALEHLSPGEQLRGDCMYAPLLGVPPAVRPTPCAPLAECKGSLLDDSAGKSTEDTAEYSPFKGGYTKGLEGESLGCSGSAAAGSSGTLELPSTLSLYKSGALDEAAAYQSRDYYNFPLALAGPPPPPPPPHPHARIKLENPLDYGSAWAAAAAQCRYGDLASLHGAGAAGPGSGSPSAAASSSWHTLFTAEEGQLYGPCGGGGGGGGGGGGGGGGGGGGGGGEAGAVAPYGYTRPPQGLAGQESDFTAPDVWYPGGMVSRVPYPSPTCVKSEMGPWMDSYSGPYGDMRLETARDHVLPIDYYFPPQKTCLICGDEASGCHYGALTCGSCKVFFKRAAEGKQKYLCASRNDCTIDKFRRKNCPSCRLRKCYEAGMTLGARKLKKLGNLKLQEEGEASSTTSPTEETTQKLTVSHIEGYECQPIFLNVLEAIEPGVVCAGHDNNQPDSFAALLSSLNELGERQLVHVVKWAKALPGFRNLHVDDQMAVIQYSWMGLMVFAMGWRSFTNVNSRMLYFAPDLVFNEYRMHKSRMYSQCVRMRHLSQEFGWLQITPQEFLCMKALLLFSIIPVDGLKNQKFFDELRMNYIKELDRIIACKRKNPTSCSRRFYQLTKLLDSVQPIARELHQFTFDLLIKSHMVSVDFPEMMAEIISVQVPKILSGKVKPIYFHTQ

Q: Which results are given for `CCCCCCCCn1cc[n+](C)c1`?
A: Potency [1]: inconclusive: 54.9 µM [rising, partial curve, poor fit]; Potency [2]: active: 21.7 µM and inconclusive: 43.6 µM [activator, partial curve, poor fit]; Potency [3]: inconclusive: 3.09 µM [cytotoxic, full curve] and inconclusive: 2.78 µM [cytotoxic, full curve]; Potency [4]: inconclusive: 3.44 µM [cytotoxic, full curve]; Potency [5]: inactive; Potency [6]: inactive; Potency [7]: inconclusive: 4.91 µM [cytotoxic, full curve] [middle of 4 runs]

Q: What does the source list for `OC(Cc1ccccc1Cl)(Cn1[nH]cnc1=S)C1(Cl)CC1` (stereo unspecified)?
A: Potency [1]: inconclusive: 54.9 µM [falling, single point]; Potency [3]: inconclusive: 54.9 µM [cytotoxic, single point]; Potency [4]: inconclusive: 54.9 µM [cytotoxic, single point]; Potency [8]: active: 54.5 µM

Q: Which Potency [1] does the source give for `CC(C)(O)C(=O)Nc1ccc([N+](=O)[O-])c(C(F)(F)F)c1` here?
A: inconclusive: 0.319 µM [rising, partial curve, poor fit]

Q: And the Potency [4]?
A: active: 25.1 µM and inconclusive: 25.3 µM [cytotoxic, partial curve]

Q: Which Potency [1] does the source give for `CC(=[OH+])/C=C(/C)[O-].CC(=[OH+])/C=C(\C)[O-].CC(=[OH+])/C=C(\C)[O-].[Fe]` here?
A: inconclusive: 61.6 µM [rising, single point]

Q: With `CCc1cnc(C2=NC(C)(C(C)C)C(=O)N2)c(C(=O)O)c1` (stereo unspecified) as the compound, how does the Potency [1] read?
A: inactive

Q: For `O=C(CBr)c1ccc(O)cc1`, which Potency [9] is on record?
A: inconclusive: 54.9 µM [activator, single point]

Q: And the Potency [4]?
A: inconclusive: 61.6 µM [rising, single point]

Q: And the Potency [10]?
A: inactive

Q: Which Potency [1] does the source give for `Nc1cc(Cl)cc(C(=O)O)c1Cl` here?
A: inactive

Q: Which results are given for `IC(I)=C(I)I`?
A: Potency [1]: inconclusive: 9.77 µM [falling, partial curve]; Potency [2]: active: 54.9 µM; Potency [11]: active: 13.8 µM; Potency [12]: active: 54.9 µM; Potency [3]: active: 6.92 µM; Potency [4]: active: 17.4 µM; Potency [6]: active: 38.9 µM; Potency [10]: inconclusive: 38.6 µM [cytotoxic, partial curve, poor fit]; Potency [7]: active: 61.1 µM; Potency [13]: active: 27.3 µM

Q: What does the source list for `CCCCC(CC)CO[N+](=O)[O-]` (stereo unspecified)?
A: Potency [1]: inactive; Potency [2]: inactive

Q: For `O=c1oc2ccccc2c(O)c1Cc1c(O)c2ccccc2oc1=O`, which Potency [1] is on record?
A: inconclusive: 23.9 µM [falling, single point]

Q: What about the Potency [14] of the same compound?
A: inconclusive: 23.9 µM [cytotoxic, partial curve, poor fit]

Q: What about the Potency [5] of the same compound?
A: inconclusive: 21.3 µM [cytotoxic, partial curve]

Q: What about the Potency [8] of the same compound?
A: inconclusive: 33.5 µM [inhibitor, single point]

Q: For `COP(=S)(OC)Oc1ccc([N+](=O)[O-])c(C)c1`, which Potency [1] is on record?
A: inactive

Q: With `N#CC(O)c1ccccc1` (stereo unspecified) as the compound, how does the Potency [9] read?
A: inactive

Q: What about the Potency [15] of the same compound?
A: inactive

Q: Which Potency [1] does the source give for `CC(=O)NC1CCSC1=O` (stereo unspecified) here?
A: inactive

Q: What about the Potency [3] of the same compound?
A: inactive

Q: Which Potency [9] does the source give for `CN(C)CCc1c[nH]c2cccc(O)c12` here?
A: inconclusive: 21.7 µM [activator, single point]

Q: And the Potency [10]?
A: inconclusive: 67.9 µM [cytotoxic, partial curve, poor fit]

Q: Which Potency [1] does the source give for `O=C1CN=C(c2ccccc2)c2cc(Cl)ccc2N1CC1CC1` here?
A: active: 16.3 µM

Q: What about the Potency [3] of the same compound?
A: inconclusive: 45.8 µM [cytotoxic, partial curve]

Q: And the Potency [4]?
A: inconclusive: 57.7 µM [cytotoxic, partial curve, poor fit]

Q: And the Potency [5]?
A: inconclusive: 51.4 µM [cytotoxic, single point]

Q: With `CCOc1nc(F)cc2nc(S(=O)(=O)Nc3c(Cl)cccc3Cl)nn12` as the compound, how does the Potency [1] read?
A: inconclusive: 24.5 µM [falling, partial curve]

Q: For `[Hg+2].[I-].[I-]`, which Potency [1] is on record?
A: inconclusive: 21.9 µM [falling, full curve]

Q: And the Potency [12]?
A: active: 49 µM

Q: And the Potency [15]?
A: active: 43.6 µM

Q: And the Potency [5]?
A: active: 24.5 µM

Q: And the Potency [6]?
A: active: 15.5 µM

Q: What about the Potency [7] of the same compound?
A: inconclusive: 4.86 µM [cytotoxic, full curve]

Q: What about the Potency [13] of the same compound?
A: inconclusive: 61.1 µM [inhibitor, single point]

Q: For `NC(=O)C(Cl)Cl`, which Potency [1] is on record?
A: inactive

Q: Which results are given for `Nc1c(Cl)cc([N+](=O)[O-])cc1Cl`?
A: Potency [1]: inactive; Potency [3]: inactive and inconclusive: 54.9 µM [cytotoxic, partial curve, poor fit]; Potency [10]: inactive

Q: What does the source list for `COc1c(C(C)(C)C)cc([N+](=O)[O-])c(C)c1[N+](=O)[O-]`?
A: Potency [9]: inactive; Potency [15]: inactive

Q: For `Cc1ccc(N)cc1N`, which Potency [1] is on record?
A: inactive
